# According to patent US11357864B2, “Antibody drug conjugates for ablating hematopoietic stem cells” (priority 2016, dated 2022):
# B1: Anti-cKIT Ab2 (antibody)
# heavy: QVQLVQSGAEVKKPGSSVKVSCKASGGTFSSHALSWVRQAPGQGLEWMGGIIPSFGTADYAQKFQGRVTITADESTSTAYMELSSLRSEDTAVYYCARGLYDFDYWGQGTLVTVSSASTKGPSVFPLAPSSKSTSGGTAALGCLVKDYFPEPVTVSWNSGALTSGVHTFPAVLQSSGLYSLSSVVTVPSSSLGTQTYICNVNHKPSNTKVDKRV[human IgG1 Fc left out]
# light: DIQMTQSPSSLSASVGDRVTITCRASQDISQDLAWYQQKPGKAPKLLIYDASSLQSGVPSRFSGSGSGTDFTLTISSLQPEDFAVYYCQQYYYLPSTFGQGTKVEIKRTVAAPSVFIFPPSDEQLKSGTASVVCLLNNFYPREAKVQWKVDNALQSGNSQESVTEQDSKDSTYSLSSTLTLSKADYEKHKVYACEVTHQGLSSPVTKSFNRGEC
# B2: Anti-cKIT Ab3 (antibody)
# heavy: QVQLVQSGAEVKKPGSSVKVSCKASGGTFSSYAISWVRQAPGQGLEWMGTIGPFEGQPRYAQKFQGRVTITADESTSTAYMELSSLRSEDTAVYYCARGGYISDFDVWGQGTLVTVSSASTKGPSVFPLAPSSKSTSGGTAALGCLVKDYFPEPVTVSWNSGALTSGVHTFPAVLQSSGLYSLSSVVTVPSSSLGTQTYICNVNHKPSNTKVDKRV[human IgG1 Fc left out]
# light: B1 light with D28S, Q31N, D32Y, V85T, L94E, P95S, S96I
# B3: Anti-cKIT Ab1 (antibody)
# heavy: B2 heavy with T50V, G52F, F54A, Q57A, R59G
# light: B1 light with D28S, Q31N, D32Y, V85T, L94E, P95S, S96I
# B4: J11 (conjugate)
# heavy: QVQLVQSGAEVKKPGSSVKVSCKASGGTFSSYAISWVRQAPGQGLEWMGTIGPFEGQPRYAQKFQGRVTITADESTSTAYMELSSLRSEDTAVYYCARGGYISDFDVWGQGTLVTVSSASTKGPSVFPLAPSSKSTSGGTAALGCLVKDYFPCPVTVSWNSGALTSGVHTFPAVLQSSGLYSLSSVVTVPSSSLGTQTYICNVNHKPSNTKVDKKVEPKSCDKTH
# light: B1 light with D28S, Q31N, D32Y, V85T, L94E, P95S, S96I
# modifications: Compound (4) payload
# B5: J19 (conjugate)
# heavy: QVQLVQSGAEVKKPGSSVKVSCKASGGTFSSHALSWVRQAPGQGLEWMGGIIPSFGTADYAQKFQGRVTITADESTSTAYMELSSLRSEDTAVYYCARGLYDFDYWGQGTLVTVSSASTKGPSVFPLAPSSKSTSGGTAALGCLVKDYFPEPVTVSWNSGALTSGVHTFPAVLQSSGLYSLSSVVTVPSSSLGTQTYICNVNHKPSNTKVDKRVEPKSCDKTHTCPPCPAPELLG
# light: B1 light
# modifications: Compound (2) payload, DAR 4
# B6: J21 (conjugate)
# heavy: QVQLVQSGAEVKKPGSSVKVSCKASGGTFSSYAISWVRQAPGQGLEWMGTIGPFEGQPRYAQKFQGRVTITADESTSTAYMELSSLRSEDTAVYYCARGGYISDFDVWGQGTLVTVSSASTKGPSVFPLAPSSKSTSGGTAALGCLVKDYFPEPVTVSWNSGALTSGVHTFPAVLQSSGLYSLSSVVTVPSSSLGTQTYICNVNHKPSNTKVDKRVEPKSCDKTHTCPPCPAPELLG
# light: B1 light with D28S, Q31N, D32Y, V85T, L94E, P95S, S96I
# modifications: Compound (5) payload, DAR 4
# B7: J10 (conjugate)
# heavy: B6 heavy with E153C
# light: B1 light with D28S, Q31N, D32Y, V85T, L94E, P95S, S96I
# modifications: Compound (5) payload
# B8: J16 (conjugate)
# heavy: B6 heavy with T50V, G52F, F54A, Q57A, R59G
# light: B1 light with D28S, Q31N, D32Y, V85T, L94E, P95S, S96I
# modifications: Compound (2) payload, DAR 4
# B9: J15 (conjugate)
# heavy: B6 heavy with T50V, G52F, F54A, Q57A, R59G
# light: B1 light with D28S, Q31N, D32Y, V85T, L94E, P95S, S96I
# modifications: Compound (5) payload, DAR 4
# B10: J22 (conjugate)
# heavy: QVQLVQSGAEVKKPGSSVKVSCKASGGTFSSYAISWVRQAPGQGLEWMGTIGPFEGQPRYAQKFQGRVTITADESTSTAYMELSSLRSEDTAVYYCARGGYISDFDVWGQGTLVTVSSASTKGPSVFPLAPSSKSTSGGTAALGCLVKDYFPEPVTVSWNSGALTSGVHTFPAVLQSSGLYSLSSVVTVPSSSLGTQTYICNVNHKPSNTKVDKRVEPKSCDKTHTCPPCPAP
# light: B1 light with D28S, Q31N, D32Y, V85T, L94E, P95S, S96I
# modifications: Compound (2) payload, DAR 4, native cysteine conjugation
# B11: J20 (conjugate)
# heavy: B10 heavy
# light: B1 light with D28S, Q31N, D32Y, V85T, L94E, P95S, S96I
# modifications: mc-MMAF payload, DAR 4
# B12: J17 (conjugate)
# heavy: B5 heavy
# light: B1 light
# modifications: mc-MMAF payload, DAR 4
# B13: J14 (conjugate)
# heavy: B6 heavy with T50V, G52F, F54A, Q57A, R59G
# light: B1 light with D28S, Q31N, D32Y, V85T, L94E, P95S, S96I
# modifications: mc-MMAF payload, DAR 4
# B14: J18 (conjugate)
# heavy: B5 heavy
# light: B1 light
# modifications: Compound (5) payload, DAR 4
# Test system: rat cKIT
# Assay: Cross reactivity of cKIT antibodies to rat cKIT
# Assay type: binding
# Conditions: not given
# Experimental: (§1) Affinity of the antibodies to cKIT species orthologues and also to human cKIT was determined using SPR technology using a Biacore® 2000 instrument (GE Healthcare, Pittsburgh, Pa.) and with CM5 sensor chips. Briefly, HBS-P (0.01 M HEPES, pH 7.4, 0.15 M NaCl, 0.005% Surfactant P20) supplemented with 2% Odyssey® blocking buffer (Li-Cor Biosciences, Lincoln, Nebr.) was used as the running buffer for all the experiments. The immobilization level and analyte interactions were measured by response unit (RU). Pilot experiments were performed to test and confirm the feasibility of the immobilization of the anti-human Fc antibody (Catalog number BR100839, GE Healthcare, Pittsburgh, Pa.) and the capture of the test antibodies. For kinetic measurements, the experiments were performed in which the antibodies were captured to the sensor chip surface via the immobilized anti-human Fc antibody and the ability of the cKIT proteins to bind in free solution was determined. Briefly, 25 μg/ml of anti-human Fc antibody at pH 5 was immobilized on a CM5 sensor chip through amine coupling at flow rate of 5 μl/min on both flow cells to reach 10,500 RUs. 0.1-1 μg/ml of test antibodies were then injected at 10 μl/min for 1 minute. Captured levels of the antibodies were generally kept below 200 RUs. Subsequently, 3.125-50 nM of cKIT receptor extracellular domains (ECD) were diluted in a 2-fold series and injected at a flow rate of 40 μl/min for 3 min over both reference and test flow cells. A table of tested ECDs is listed below (Table 5). Dissociation of ECD binding was followed for 10 min. After each injection cycle, the chip surface was regenerated with 3 M MgCl2 at 10 μl/min for 30 seconds.
row,Molecule,Reactivity to rat cKIT
1,B1,Not reactive
2,B2,Not reactive
3,B3,Not reactive

# Target: T1, human cKIT ECD (Homo sapiens, UniProt P10721)
# T1 construct: 26-520-TAG; host or cells: HEK293 derived cell line 293FS, transient transfection
# T1 sequence (P10721 with tags, fused parts or gaps isoform P10721-2): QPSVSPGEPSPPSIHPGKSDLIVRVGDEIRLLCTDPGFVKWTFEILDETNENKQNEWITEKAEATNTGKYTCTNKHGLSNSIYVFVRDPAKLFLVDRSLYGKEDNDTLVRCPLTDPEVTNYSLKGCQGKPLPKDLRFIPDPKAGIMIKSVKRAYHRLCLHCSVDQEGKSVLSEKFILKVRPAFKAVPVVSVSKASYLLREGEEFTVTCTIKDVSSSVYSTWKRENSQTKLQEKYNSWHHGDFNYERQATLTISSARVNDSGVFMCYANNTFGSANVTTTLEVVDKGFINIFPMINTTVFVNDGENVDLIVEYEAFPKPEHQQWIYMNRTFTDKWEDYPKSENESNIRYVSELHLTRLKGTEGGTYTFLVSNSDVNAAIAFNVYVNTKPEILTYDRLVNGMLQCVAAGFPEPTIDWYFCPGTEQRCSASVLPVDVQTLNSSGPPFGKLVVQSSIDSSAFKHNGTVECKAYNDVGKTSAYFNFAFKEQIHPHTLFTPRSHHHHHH
# Assay: Affinity measurement of cKIT antibodies to human cKIT ECD
# Assay type: binding
# Conditions: read-out: KD (pM) to human cKIT ECD in SET
# Experimental: as §1, with “Subsequently, 3.125-50 nM of cKIT receptor extracellular domains (ECD) were diluted in a 2-fold series and injected at a flow rate of 40 μl/min for 3 min over both reference and test flow cells. A table of tested ECDs is listed below (Table 5). Dissociation of ECD binding was followed for 10 min. After each injection cycle, the chip surface was regenerated with 3 M MgCl2 at 10 μl/min for 30 seconds.” left out
row,Molecule,Kd [pM]
1,B2,160

# Target: T2, mouse cKIT (Mus musculus, UniProt P05532)
# T2 construct: 3.125-50 nM of cKIT receptor extracellular domains (ECD) were diluted in a 2-fold series; purchased Sino Biological Inc 50530-M08H
# T2 sequence (P05532 25-527 limits assumed): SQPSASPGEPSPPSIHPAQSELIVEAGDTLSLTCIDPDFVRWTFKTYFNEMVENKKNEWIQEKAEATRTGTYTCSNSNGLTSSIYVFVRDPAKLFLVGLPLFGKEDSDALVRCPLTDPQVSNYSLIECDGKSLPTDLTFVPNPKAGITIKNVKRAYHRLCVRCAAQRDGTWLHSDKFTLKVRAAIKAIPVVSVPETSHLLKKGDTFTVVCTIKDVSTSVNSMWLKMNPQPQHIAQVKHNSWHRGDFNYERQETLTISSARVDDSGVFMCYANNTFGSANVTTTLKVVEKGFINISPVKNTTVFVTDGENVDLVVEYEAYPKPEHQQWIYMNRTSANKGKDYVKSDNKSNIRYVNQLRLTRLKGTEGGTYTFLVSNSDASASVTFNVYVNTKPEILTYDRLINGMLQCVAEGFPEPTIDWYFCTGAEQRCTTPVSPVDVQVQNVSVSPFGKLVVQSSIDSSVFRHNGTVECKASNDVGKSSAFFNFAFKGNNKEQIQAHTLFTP
# Assay: Cross reactivity of cKIT antibodies to mouse cKIT
# Assay type: binding
# Conditions: not given
# Experimental: as §1
row,Molecule,Reactivity to mouse cKIT
1,B1,Not reactive
2,B2,Not reactive
3,B3,Not reactive

# Test system: not listed separately
# Assay: Determination of DAR (compound-to-antibody ratio) by LC-MS
# Assay type: physicochemical
# Conditions: drug (payload)-to-antibody fragment ratio of the conjugate
# Experimental: DAR value of the cKIT ADC was evaluated by liquid chromatography-mass spectrometry (LC-MS). A compound-to-antibody ratio was extrapolated from LC-MS data for reduced and deglycosylated (when appropriate, i.e. when Fc is included) samples. LC-MS allows quantitation of the average number of molecules of linker-payload (compound) attached to an antibody in a conjugate sample.
# Antibody and antibody fragment conjugates were analyzed to determine extent of conjugation. A compound-to-antibody ratio was extrapolated from LC-MS data for reduced and deglycosylated (where appropriate) samples. LC/MS allows quantitation of the average number of molecules of linker-payload (compound) attached to an antibody in a conjugate sample. High pressure liquid chromatography (HPLC) separates antibody into light and heavy chains, and under reducing conditions, separates heavy chain (HC) and light chain (LC) according to the number of linker-payload groups per chain. Mass spectral data enables identification of the component species in the mixture, e.g., LC, LC+1, LC+2, HC, HC+1, HC+2, etc. From the average loading on the LC and HC chains, the average compound to antibody ratio can be calculated for an antibody conjugate. A compound-to-antibody ratio for a given conjugate sample represents the average number of compound (linker-payload) molecules attached to a tetrameric antibody containing two light chains and two heavy chains.
row,Molecule,DAR
1,B4,0.9
2,B5,4
3,B6,4
4,B7,2
5,B8,4
6,B9,4
7,B10,4
8,B11,4
9,B12,4
10,B13,4
11,B14,4

# Where a chain is given by its changes, count along the chain named.
